The list shows a part of the results. The energies were worked out here from pooled read counts, against the library average; single values are noisy.
Each sequence was assayed against T1, Pho4 (S. cerevisiae) (UniProt P07270) (assay: relative binding free energy (BET-seq); higher = weaker binding). Details: reference: library average.
T1 sequence: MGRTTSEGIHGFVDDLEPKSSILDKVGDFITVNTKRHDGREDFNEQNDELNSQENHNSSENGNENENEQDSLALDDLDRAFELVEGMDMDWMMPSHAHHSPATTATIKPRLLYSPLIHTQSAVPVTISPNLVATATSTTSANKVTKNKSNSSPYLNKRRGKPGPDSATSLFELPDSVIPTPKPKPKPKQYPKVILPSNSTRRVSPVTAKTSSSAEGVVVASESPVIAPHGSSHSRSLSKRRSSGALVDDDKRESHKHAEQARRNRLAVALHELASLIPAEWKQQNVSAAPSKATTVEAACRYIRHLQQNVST
In the case of GTTGGCACGTGGGCCT, the “relative binding free energy” value is reported as -0.14 kcal/mol.
For GTAATCACGTGTAGCT, the “relative binding free energy” value was 0.21 kcal/mol.
TCGCGCACGTGGAGGT was tested, and the “relative binding free energy” value was -0.18 kcal/mol.
In the case of TGTATCACGTGATCTT, the “relative binding free energy” value is reported as 0.15 kcal/mol.
In the case of GACTGCACGTGGAGGA, the “relative binding free energy” value is reported as 0.19 kcal/mol.
In the case of CGTCTCACGTGTGGGA, the “relative binding free energy” value is reported as 0.2 kcal/mol.
In the case of CACTGCACGTGGGGCG, the “relative binding free energy” value is reported as -0.05 kcal/mol.
For TTTAGCACGTGCTTGG, the “relative binding free energy” value was -0.05 kcal/mol.
TGTGTCACGTGGGAAG was tested, and the “relative binding free energy” value was 0.02 kcal/mol.
For GGTTGCACGTGCGTTG, the “relative binding free energy” value was 0.05 kcal/mol.
TGAGACACGTGTGAGA was tested, and the “relative binding free energy” value was 0.23 kcal/mol.
With CTTTGCACGTGAGGGC the “relative binding free energy” value was 0.22 kcal/mol.
In the case of TTGTCCACGTGGAAGG, the “relative binding free energy” value is reported as 0 kcal/mol.
For ATAAGCACGTGGGGTC, the “relative binding free energy” value was -0.16 kcal/mol.
For AGATGCACGTGAGGGT, the “relative binding free energy” value was 0.16 kcal/mol.
For GATGGCACGTGATGCT, the “relative binding free energy” value was 0.03 kcal/mol.
For CCGCGCACGTGTGGGG, the “relative binding free energy” value was -0.09 kcal/mol.
In the case of CGGGACACGTGGTGGT, the “relative binding free energy” value is reported as -0.02 kcal/mol.
For AATCACACGTGGTTGG, the “relative binding free energy” value was 0.12 kcal/mol.
For TAGTACACGTGTATTG, the “relative binding free energy” value was 0.03 kcal/mol.
For AGATACACGTGGGTAT, the “relative binding free energy” value was -0.15 kcal/mol.
TGTCTCACGTGTTCTG was tested, and the “relative binding free energy” value was 0.15 kcal/mol.
AGTTCCACGTGTGGAG was tested, and the “relative binding free energy” value was 0.08 kcal/mol.
In the case of GGTATCACGTGACGGT, the “relative binding free energy” value is reported as 0.3 kcal/mol.
In the case of GTGTACACGTGACTGG, the “relative binding free energy” value is reported as 0 kcal/mol.
TCAGACACGTGTGGGG was tested, and the “relative binding free energy” value was 0.12 kcal/mol.
With TCAATCACGTGTTGTA the “relative binding free energy” value was 0.21 kcal/mol.
CTGTGCACGTGCTTTG was tested, and the “relative binding free energy” value was 0.04 kcal/mol.
For TAGTTCACGTGGCGTT, the “relative binding free energy” value was 0.22 kcal/mol.
ACCGGCACGTGAGGGT was tested, and the “relative binding free energy” value was 0.11 kcal/mol.
With TTTGGCACGTGTGCGT the “relative binding free energy” value was -0.13 kcal/mol.
In the case of AGTACCACGTGGTGAG, the “relative binding free energy” value is reported as -0.03 kcal/mol.
In the case of GGTCGCACGTGTGCGT, the “relative binding free energy” value is reported as -0.03 kcal/mol.
For TGGTGCACGTGTTGCA, the “relative binding free energy” value was -0.11 kcal/mol.
With TGCGACACGTGGTGGG the “relative binding free energy” value was -0.01 kcal/mol.
TCAATCACGTGGTGTA was tested, and the “relative binding free energy” value was 0.28 kcal/mol.
With ACTTGCACGTGGGTTT the “relative binding free energy” value was -0.14 kcal/mol.
For CGTTTCACGTGGCGAG, the “relative binding free energy” value was 0.3 kcal/mol.
With TTCTACACGTGGTGAT the “relative binding free energy” value was 0.08 kcal/mol.
With GTAGTCACGTGTCGGT the “relative binding free energy” value was 0.18 kcal/mol.
In the case of GTGATCACGTGTATAA, the “relative binding free energy” value is reported as 0.22 kcal/mol.
In the case of TTGGCCACGTGTTCGG, the “relative binding free energy” value is reported as -0.12 kcal/mol.
In the case of ATTGGCACGTGGGGGT, the “relative binding free energy” value is reported as -0.24 kcal/mol.
With TGGTTCACGTGAGTAT the “relative binding free energy” value was 0.35 kcal/mol.
With GTATCCACGTGCGTGG the “relative binding free energy” value was 0.14 kcal/mol.
With GAGGGCACGTGGATCG the “relative binding free energy” value was -0.04 kcal/mol.
For ACAGTCACGTGTGTGG, the “relative binding free energy” value was 0.1 kcal/mol.
With GATTTCACGTGGGGCT the “relative binding free energy” value was 0.37 kcal/mol.
In the case of GGTTACACGTGGGCGA, the “relative binding free energy” value is reported as -0.03 kcal/mol.
With ATAGGCACGTGGTCAT the “relative binding free energy” value was -0.2 kcal/mol.
For CTACGCACGTGTGGGG, the “relative binding free energy” value was -0.23 kcal/mol.
For GATGTCACGTGTGGTG, the “relative binding free energy” value was 0.14 kcal/mol.
In the case of TTGCGCACGTGCTAGT, the “relative binding free energy” value is reported as -0.15 kcal/mol.
CGTTTCACGTGGCGGG was tested, and the “relative binding free energy” value was 0.13 kcal/mol.
With AGGGACACGTGGTGGA the “relative binding free energy” value was 0.09 kcal/mol.
TGATTCACGTGTTTCA was tested, and the “relative binding free energy” value was 0.18 kcal/mol.
In the case of AAAGGCACGTGGACGG, the “relative binding free energy” value is reported as -0.11 kcal/mol.
For GGAATCACGTGTGGAA, the “relative binding free energy” value was 0.23 kcal/mol.
In the case of GTAGTCACGTGCGCTG, the “relative binding free energy” value is reported as 0.1 kcal/mol.
In the case of TGTGGCACGTGGACTC, the “relative binding free energy” value is reported as -0.02 kcal/mol.
With ATTGTCACGTGAGAAG the “relative binding free energy” value was 0.26 kcal/mol.
For GGGTTCACGTGCGTTT, the “relative binding free energy” value was 0.26 kcal/mol.
GGGCTCACGTGTTATT was tested, and the “relative binding free energy” value was 0.23 kcal/mol.

— the BET-seq Pho4 binding data (Le et al. 2018)
